Data reported in PMC4336329 (PLoS ONE, 2015).
Out of some 310,000 compounds screened, about 2,200 (0.71%) showed an effect of 50% or more. Effects have a minus sign here. This is one part of the list.

target: human ether-à-go-go-related gene (hERG) potassium channel (human, UniProt Q12809); assay: primary screen, population patch clamp on CHO cells stably expressing hERG
Sequence (Q12809 whole entry, looked up): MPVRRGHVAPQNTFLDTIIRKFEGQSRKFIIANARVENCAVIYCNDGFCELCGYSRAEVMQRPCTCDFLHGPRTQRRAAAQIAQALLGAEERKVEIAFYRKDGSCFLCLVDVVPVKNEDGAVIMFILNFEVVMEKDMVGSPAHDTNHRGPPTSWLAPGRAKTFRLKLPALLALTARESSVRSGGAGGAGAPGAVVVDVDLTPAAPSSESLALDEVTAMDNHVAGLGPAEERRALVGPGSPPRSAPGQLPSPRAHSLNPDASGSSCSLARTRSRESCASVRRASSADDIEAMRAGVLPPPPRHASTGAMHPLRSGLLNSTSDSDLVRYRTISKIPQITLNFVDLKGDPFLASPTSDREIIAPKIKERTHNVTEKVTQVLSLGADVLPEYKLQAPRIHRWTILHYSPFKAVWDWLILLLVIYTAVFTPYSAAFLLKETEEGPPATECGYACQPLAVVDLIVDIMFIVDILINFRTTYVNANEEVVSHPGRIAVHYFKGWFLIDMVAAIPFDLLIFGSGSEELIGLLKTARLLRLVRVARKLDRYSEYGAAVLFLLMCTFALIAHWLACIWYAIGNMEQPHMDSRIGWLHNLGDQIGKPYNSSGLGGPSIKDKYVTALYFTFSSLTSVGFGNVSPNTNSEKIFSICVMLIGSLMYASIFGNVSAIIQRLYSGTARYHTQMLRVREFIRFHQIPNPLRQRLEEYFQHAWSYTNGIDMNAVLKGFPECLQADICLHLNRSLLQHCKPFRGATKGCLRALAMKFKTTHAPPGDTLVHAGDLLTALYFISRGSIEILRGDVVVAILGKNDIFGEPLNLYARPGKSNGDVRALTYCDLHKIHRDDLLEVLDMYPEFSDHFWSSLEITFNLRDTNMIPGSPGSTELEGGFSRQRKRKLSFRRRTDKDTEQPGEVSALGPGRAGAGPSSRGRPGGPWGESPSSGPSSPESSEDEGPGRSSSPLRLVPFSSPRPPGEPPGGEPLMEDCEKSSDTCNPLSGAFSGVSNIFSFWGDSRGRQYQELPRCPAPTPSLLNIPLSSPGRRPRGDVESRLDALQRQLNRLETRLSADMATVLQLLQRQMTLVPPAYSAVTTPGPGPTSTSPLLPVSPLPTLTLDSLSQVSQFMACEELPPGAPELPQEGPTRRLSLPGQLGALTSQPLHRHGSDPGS

Structure (SMILES) | hERG current change (%, negative = inhibition) at 1uM [%]
COc1ccc(CNC(=O)C2COc3ccccc3O2)cc1 (stereo not drawn) | 7.77
Nc1nc2nc(-c3cccs3)cc(C(F)(F)F)n2n1 | 17.2
O=C(O)c1ccc(S(=O)(=O)c2ccc3c(c2)C(=O)N(NC(=O)c2ccc(O)cc2)C3=O)cc1 | 9.85
Cc1ccc(OCc2nc(C#N)c(NCCCn3ccnc3)o2)cc1 | -28
CCc1ccc(-c2cn(-c3nc(C)cc(C)n3)c(=N)o2)cc1 | -32.2
COc1ccc(OC)c(NC(=O)CCCSc2ccccc2)c1 | 14
CC(=O)c1cccc(NC(=S)NC(=O)CC(C)C)c1 | 7.25
COC(=O)c1[nH]c2c(c1C)C(=O)CC(c1cc(OC)ccc1OC)C2 (stereo not drawn) | 9.46
COCCCn1cc(C(=O)c2cc(OC)ccc2OCC(=O)N2CCCCC2C)cc(C#N)c1=O (stereo not drawn) | -6.39
CC(=O)N1c2ccc(S(=O)(=O)N3CCCC3C(=O)NCc3ccc(Cl)cc3)cc2CC1C (stereo not drawn) | -23.6
Cn1c(=O)oc2cc(S(=O)(=O)NCCC(=O)NC3CCCC3)ccc21 | -0.0182
CC(C)OP(=O)(OC(C)C)C(O)c1ccc(Br)cc1 (stereo not drawn) | -2.23
O=C(Nc1ccc2c(c1)OCO2)[C@@H]1[C@@H]2C(=O)N(C3CCCCC3)C(=O)[C@@H]2C2c3ccccc3C=CN21 (stereo partly drawn) | -5.83
C[n+]1ccc(C(=O)NCCC[N+](C)(C)C)cc1/C=N/O.[Cl-] | 15.4
COc1cccc(NC(=O)CN2CCN(S(=O)(=O)c3ccc(F)cc3)CC2)c1 | 4.16
CC(C)(C)c1ccc(Oc2ccc(N)cn2)cc1 | 11.2
N#Cc1cnn(-c2ncnc3sc(-c4ccccc4)cc23)c1N | 3.12
Cc1ccc(NC(=O)CSc2nc3nc(C)c(Br)cc3[nH]2)cc1F | 15.4
O=C(Nc1ncnc2sc3c(c12)CCCCC3)c1ccco1 | -0.306
O=C(Nc1nc(COc2ccccc2)cs1)C12CC3CC(CC(C3)C1)C2 | -4.23
COc1ccc(-n2c(Cc3cc(=O)[nH]c(=O)[nH]3)nnc2SCC(=O)N2CCCC2)cc1 | -4.1
COc1cc(OC)cc(OC(=O)c2ccc3c(=O)n4c(nc3c2)CCC4)c1 | 3.08

Structure (SMILES) | hERG current change (%, negative = inhibition) at 1uM [%]
c1ccc(CCn2c3ccccc3c3nnc(SCc4ccc5nonc5c4)nc32)cc1 | -3.19
COc1ccc(Cl)cc1N(CC(=O)Nc1ccccc1C(=O)N1CCOCC1)S(C)(=O)=O | 4.75
COC(=O)C1=C(N)Oc2cc(C)oc(=O)c2C12C(=O)Nc1ccccc12 (stereo not drawn) | 12.7
O=C(CNS(=O)(=O)c1ccccc1)N1CCN(c2ccccc2)CC1 | -2.25
O=C(NCCN1CCOCC1)c1ccc(CS(=O)(=O)c2ccc(Br)cc2)o1 | -0.189
CCSc1nc2c(c(=O)[nH]1)C(C(C)C)C(C#N)=C(N)O2 (stereo not drawn) | 9.65
CCCc1cc(=O)[nH]c(SCCc2ccccc2)n1 | 12.8
CCOc1cc2[nH]c(=S)n(CCCCC(=O)NCc3ccco3)c(=O)c2cc1OCC | -3.41
COC(C(=O)N/N=C(\C)CC(=O)Nc1ccc(Cl)cc1C)c1ccccc1 (stereo not drawn) | 6.55
CCN(CC)CCCNC(=O)c1cc2c(Cl)nc3ccccc3c2s1 | -8.23
COc1cc(/C=c2\sc3n(c2=O)CCCN=3)ccc1O | 13.5
Cc1ccc(C2=NN(C(=O)CSc3nccn3C)C(c3ccco3)C2)cc1 (stereo not drawn) | -13.7
O=C(Nc1nc2ccccc2[nH]1)c1ccc(OC(F)F)cc1 | 0.409
COc1ccc2nc(Cl)c(C3CC(c4ccco4)=NN3C(=O)CCC(=O)O)cc2c1 (stereo not drawn) | -8.1
CC(CCc1ccccc1)NC(=O)CNc1cccc([N+](=O)[O-])c1 (stereo not drawn) | -2.71
CSc1nnc(NC(=O)C2CCCCC2)s1 | 7.66
O=C(O)CSCC(=O)N(Cc1ccccc1)c1nc(-c2ccccc2)c(-c2ccccc2)s1 | 6.31
CCC(c1nnnn1CCc1ccccc1)N(Cc1ccco1)Cc1cc2c(C)ccc(C)c2[nH]c1=O (stereo not drawn) | 2.44
Cc1ccccc1-n1c(SCC(=O)NCC2CCCO2)nc2c([nH]c3ccccc32)c1=O (stereo not drawn) | 13.7
O=C(CCNS(=O)(=O)c1ccccc1)Nc1ccc(Cl)cc1C(=O)c1ccccc1 | -16.3
Cc1cc(C)c(NC(=O)CN)c(C)c1.Cl | 13.3
COc1ccc(C(=O)c2c(NC(C)=O)sc3c2CCN(C(=O)OC(C)(C)C)C3)cc1 | 5.36

Structure (SMILES) | hERG current change (%, negative = inhibition) at 1uM [%]
CCCOc1ccc(CNC(=O)C2CCN(C(=O)N3CCOc4ccccc43)CC2)cc1 | 13.4
CCCc1ccc(OCc2ccc(C(=O)N3CCSCC3)o2)cc1 | 5.73
CCOC(=O)c1c(C)[nH]c(C(=O)NCCc2ccc(OC)c(OC)c2)c1C | -6.48
CC(C)C(Nc1ccc(S(=O)(=O)N2CCOCC2)cc1[N+](=O)[O-])C(=O)O (stereo not drawn) | 14.9
Cn1ccnc1Sc1cc(NCCCO)c([N+](=O)[O-])c2nonc12 | 6.85
CCOC(=O)N1CCN(C(=S)Nc2cccc(C)c2)CC1 | 2.51
CCc1c(C)n2nc(C)cc2[nH]c1=O | 0.617
CCOc1cc(/C=C2\N=C(C)OC2=O)cc(Br)c1OCC(=O)OC | 18.6
O=C(COC(=O)C1CC2C=CC1C2)Nc1ccccc1 (stereo not drawn) | 0.351
Cc1cc(C)n2nc(C(=O)OCC(=O)N3C(C)CCCC3C)nc2n1 (stereo not drawn) | 9.28
Cc1nn(C2CCS(=O)(=O)C2)c(C)c1CN(C)C(=O)c1cccc(Cl)c1 (stereo not drawn) | 12.4
N/C(=N\c1nc2ccccc2o1)NC(=O)c1ccccc1F | -3.34
Cc1ccc(NC(=O)CSCC(=O)OC(C)C(=O)Nc2ccc(S(N)(=O)=O)cc2)c(C)c1 (stereo not drawn) | 12.3
CC(C)NC(=O)C1CCN(c2ccc(S(=O)(=O)N3CCOCC3)cc2Cl)CC1 | 13.9
O=C(CSc1nnc(-c2ccncc2)n1C1CCCCC1)Nc1ccccc1 | 5.16
Cc1c(NC(=O)CN2C(=O)C(=O)N(Cc3ccccc3)C2=O)c(=O)n(-c2ccccc2)n1C | 13.8
Cc1ccccc1NC(=S)NCCc1c[nH]c2ccccc12 | 14
CN1OC(COC(=O)c2ccccc2)CC1c1ccccc1 (stereo not drawn) | 3.71
CN1C(=O)C(CCC(N)=O)NC1=S (stereo not drawn) | 1.9
CCOc1ccc(N2C(=O)C(CC(=O)Nc3ccccc3)N(Cc3ccccn3)C2=S)cc1 (stereo not drawn) | 10.1
CC(C)CN1CCN(Cc2ccccc2C(F)(F)F)CC1CCO (stereo not drawn) | 8.39
O=C(Nc1ccc(F)cc1)C(Sc1nc2ccccc2[nH]1)c1ccccc1 (stereo not drawn) | 8.36

Structure (SMILES) | hERG current change (%, negative = inhibition) at 1uM [%]
COc1ccc(S(=O)(=O)N2CCCCC2)cc1NC(=O)c1cccs1 | 16.8
Cc1ccc(NCN2C(=O)c3ccccc3C2=O)c(C)c1 | -3.84
CCOc1ccc(N2C(=O)/C(=C\c3ccc(O)c(OC)c3)S(=O)(=O)C2c2cccc([N+](=O)[O-])c2)cc1 (stereo not drawn) | 20.8
O=C(/C=C/c1cccc([N+](=O)[O-])c1)Nc1cccc(NC(=O)c2cccs2)c1 | 7.83
COc1ccc(-n2nnnc2SCC(=O)Nc2cccc(NC(C)=O)c2)cc1OC | 8.98
C/C(=N/NS(=O)(=O)c1cc(C)ccc1C)c1ccncc1 | 12.8
CCOc1ccc(C(=O)n2cc(C(=O)OC)c3ccccc32)cc1OCC | 12.4
O=C(Cc1ccccc1[N+](=O)[O-])OCN1C(=O)c2ccccc2C1=O | 11.4
CCOc1ccc(-c2cc(C(=O)N3CCCC3)c3ccccc3n2)cc1 | 15.7
COc1cc(/C=N/N=C2/C(=O)Nc3ccccc32)cc(OC)c1O | 5.75
COc1ccc2ccccc2c1/C=N/NC(=O)c1cccc(C)c1 | 12.1
Cc1ccc(NC(=O)NCc2ccncc2)cc1Cl | 3.82
O=c1oc2ccccc2cc1-c1ccccc1 | 17.6
CC(C)(C)c1ccc(-n2ncc3c2CCCC3NC(=O)c2csnn2)cc1 (stereo not drawn) | 9.11
Cc1cccc(N2C(=O)CC(Sc3nc(C)c4c(n3)CCCC4)C2=O)c1 (stereo not drawn) | 2.93
CC1CCC(C(C)C)C(OC(=O)CSc2nc(N)cc(=O)[nH]2)C1 (stereo not drawn) | 14
CCc1ccc(NC(=O)Cn2nnc(C(=O)NCc3ccco3)c2N)cc1 | 15.6
O=C(Nc1ccncc1)c1ccc(Cl)c(S(=O)(=O)N2CCCCC2)c1 | 5.29
O=C(NC1CC(=O)c2sccc21)c1ccc(Cl)cc1Cl (stereo not drawn) | -3.93
CCOc1ccccc1NS(=O)(=O)c1ccc(-n2cccn2)cc1 | 3.25
CCCc1cc(=O)[nH]c(SCC(=O)Nc2ccc(C)cc2)n1 | 4.16
